The list shows a part of the results. Sequences were assembled here from the parent chain. Values near 0.05 are background.

To fix the notation:
B1: TEV protease; numbered along this chain (parent)
chain: MGESLFKGPRDYNPISSSICHLTNESDGHTTSLYGIGFGPFIITNKHLFRRNNGTLVVQSLHGVFKVKDTTTLQQHLVDGRDMIIIRMPKDFPPFPQKLKFREPQREERICLVTTNFQTKSMSSMVSDTSCTFPSGDGIFWKHWIQTKDGQCGSPLVSTRDGFIVGIHSASNFTNTNNYFTSVPKNFMELLTNQEAQQWVSGWRLNADSVLWGGHKVFMVKPEEPFQPVKEATQL
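Further: Bxb1 expression induced with 0.2% (w/v) L-rhamnose at OD600 near 0.5, cultures sampled hourly, flipped fraction per protease–substrate barcode pair counted by paired-end Illumina sequencing.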

The variants in the experiment derive from B1. Kind of experiment: raw area under fraction-flipped curve 0-4 h after induction (AUC4h, not background-subtracted), DNA-recorder readout of cleavage of the substrate (dimensionless); higher = more cleavage of the substrate by the protease variant. The settings on record: temperature: 34 °C; time window: 0-4 h after rhamnose induction. As to the method:
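In vivo DNA recorder in E. coli TOP10(DE3) ΔrhaA at 34 °C. Each TEVp single-site mutant (parent TEVp 0) is paired with a single-site variant of the 7-mer TEVs (canonical ENLYFQ|S). The substrate sits between flexible linkers in a Bxb1-sfGFP-TEVs-SsrA fusion, so cleavage stabilises Bxb1 and speeds flipping of a recombination array, read by NGS. The value is the raw area under the fraction-flipped curve over 0-4 h after rhamnose induction (AUC4h), with ≥20 reads per time point. It is not background-subtracted; inactive controls average about 0.047.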
For MGESLFKGPRDYNPISSSICHLTNESDGHTTSLYGIGFGPFIITNKHLFRRNNGTLVVQSLHGVFKVKDTTTLQQHLVDGRDMIIIRMPKDFPPFPQKLKFREPQREERICLVTTNFLTKSMSSMVSDTSCTFPSGDGIFWKHWIQTKDGQCGSPLVSTRDGFIVGIHSASNFTNTNNYFTSVPKNFMELLTNQEAQQWVSGWRLNADSVLWGGHKVFMVKPEEPFQPVKEATQL [Q118L], the “area with substrate ENLYFAS” value worked out at 0.0601, the “area with substrate ENLYFES” value turned out to be 0.0585, the “area with substrate ENLYFFS” value was 0.057 and the “area with substrate ENLYFHS” value is 0.0548. Also, the “area with substrate ENLYFIS” value stood at 0.0734, the “area with substrate ENLYFMS” value was 0.0595, the “area with substrate ENLYFTS” value stood at 0.0432 and the “area with substrate ENLYFVS” value amounted to 0.0102. The “area with substrate ENLYFYS” value came out at 0.0496.

For MGESLFKGPRDYNPISSSICHLTNESDGHTTSLYGIGFGPFIITNKHLFRRNNGTLVVQSLHGVFKVKDTTTLQQHLVDGRDMIIIRMPKDFPPFPQKLKFRMPQREERICLVTTNFQTKSMSSMVSDTSCTFPSGDGIFWKHWIQTKDGQCGSPLVSTRDGFIVGIHSASNFTNTNNYFTSVPKNFMELLTNQEAQQWVSGWRLNADSVLWGGHKVFMVKPEEPFQPVKEATQL [E103M], the “area with substrate ENLYFAS” value came to 0.0517, the “area with substrate ENLYFDS” value was found to be 0.0692, the “area with substrate ENLYFES” value turned out to be 0.0484 and the “area with substrate ENLYFFS” value stood at 0.0684. The “area with substrate ENLYFIS” value turned out to be 0.0588, the “area with substrate ENLYFKS” value was 0.0498, the “area with substrate ENLYFMS” value was 0.0545 and the “area with substrate ENLYFNS” value was determined as 0.0671. The “area with substrate ENLYFPS” value worked out at 0.0457, the “area with substrate ENLYFSS” value came to 0.0588, the “area with substrate ENLYFTS” value was 0.0522 and the “area with substrate ENLYFYS” value came to 0.0591.

Take MGESLFKGPRDYNPISSSICHLTNESDGHTTSLYGIGFGPFIITNKHLFRRNNGTLVVQSLHGVFKVKDTTTLQQHLVDGRDMIIIRMPKDFPPFPQKLKFREPQREERICLVTTNFQTKSMSSMVSDTSKTFPSGDGIFWKHWIQTKDGQCGSPLVSTRDGFIVGIHSASNFTNTNNYFTSVPKNFMELLTNQEAQQWVSGWRLNADSVLWGGHKVFMVKPEEPFQPVKEATQL [C131K]: the “area with substrate ENLYFAS” value was found to be 0.0381, the “area with substrate ENLYFDS” value was 0.0543, the “area with substrate ENLYFIS” value was found to be 0.0436 and the “area with substrate ENLYFKS” value is 0.0571. Besides, the “area with substrate ENLYFPS” value amounted to 0.0604, the “area with substrate ENLYFRS” value stood at 0.0541 and the “area with substrate ENLYFWS” value is 0.0693.

Consider MGESLFKGPRDYNPISSSICHLTNESDGHTTSLYGIGFGPFIITNKHLFRRNNGTLVVQSLHGVFKVKDTTTLQQHLVDGRDMIIIRMAKDFPPFPQKLKFREPQREERICLVTTNFQTKSMSSMVSDTSCTFPSGDGIFWKHWIQTKDGQCGSPLVSTRDGFIVGIHSASNFTNTNNYFTSVPKNFMELLTNQEAQQWVSGWRLNADSVLWGGHKVFMVKPEEPFQPVKEATQL [P89A], for which the “area with substrate ENLYFAS” value came to 0.079, the “area with substrate ENLYFES” value was determined as 0.068, the “area with substrate ENLYFFS” value came to 0.0436 and the “area with substrate ENLYFHS” value stood at 0.0567. The “area with substrate ENLYFIS” value came to 0.0528, the “area with substrate ENLYFMS” value amounted to 0.0388 and the “area with substrate ENLYFTS” value was determined as 0.0624.

As for MGESLFKGPRDYNPISSSICHLTNESDGHTTSLYGIGFGPFIITNKHLFRRNNGTLVVNSLHGVFKVKDTTTLQQHLVDGRDMIIIRMPKDFPPFPQKLKFREPQREERICLVTTNFQTKSMSSMVSDTSCTFPSGDGIFWKHWIQTKDGQCGSPLVSTRDGFIVGIHSASNFTNTNNYFTSVPKNFMELLTNQEAQQWVSGWRLNADSVLWGGHKVFMVKPEEPFQPVKEATQL [Q59N], the “area with substrate ENLYFAS” value amounted to 0.0632, the “area with substrate ENLYFCS” value was 0.0543, the “area with substrate ENLYFES” value came out at 0.0596 and the “area with substrate ENLYFFS” value came out at 0.0709. Also, the “area with substrate ENLYFHS” value is 0.0702, the “area with substrate ENLYFIS” value came out at 0.0627, the “area with substrate ENLYFRS” value was found to be 0.037 and the “area with substrate ENLYFTS” value was found to be 0.0572.

Regarding MGESLFKGPRDYNPISSSICHLTNESDGHTTSLYGIGFGPFIITNKHLFRRNNGTLVVQSLHGVFKVKDTTTLQQHLVDGRDMIIIRMPKDFPPFPQKLKFREPQREERICLVTTNFQTKSMSSMVSDTSCTFPSGQGIFWKHWIQTKDGQCGSPLVSTRDGFIVGIHSASNFTNTNNYFTSVPKNFMELLTNQEAQQWVSGWRLNADSVLWGGHKVFMVKPEEPFQPVKEATQL [D137Q], the “area with substrate ENLYFAS” value was 0.0059, the “area with substrate ENLYFDS” value was determined as 0.0589, the “area with substrate ENLYFIS” value was determined as 0.057 and the “area with substrate ENLYFLS” value came to 0.0715. Further, the “area with substrate ENLYFPS” value is 0.0582, the “area with substrate ENLYFSS” value worked out at 0.0675, the “area with substrate ENLYFTS” value came out at 0.0669 and the “area with substrate ENLYFWS” value was 0.0579.

For the variant MGESLFKGPRDYNPISSSICHLTNESDGHTTSLYGIGFGPFIITNKHLFRRNNGTLVVQSLHGVFKVKDTTTLQQHLVDGRDMIIIRMPKDFPPFPQKLKFREPQREERICLVTTNFQTKSMSSMVSDTSCTFPSGDGIFWKHWIQTKDGQCGSPLVSTRDGFIVGIHSASNFTNTNNYFVSVPKNFMELLTNQEAQQWVSGWRLNADSVLWGGHKVFMVKPEEPFQPVKEATQL [T181V], the “area with substrate ENLYFAS” value was determined as 0.0566, the “area with substrate ENLYFCS” value worked out at 0.0641, the “area with substrate ENLYFDS” value was determined as 0.074 and the “area with substrate ENLYFES” value was found to be 0.047. Further, the “area with substrate ENLYFFS” value was determined as 0.0571, the “area with substrate ENLYFGS” value amounted to 0.0759, the “area with substrate ENLYFIS” value stood at 0.0533 and the “area with substrate ENLYFKS” value worked out at 0.063. Besides, the “area with substrate ENLYFMS” value stood at 0.0593, the “area with substrate ENLYFPS” value is 0.0623, the “area with substrate ENLYFTS” value came to 0.066 and the “area with substrate ENLYFVS” value stood at 0.0537. Besides, the “area with substrate ENLYFYS” value stood at 0.0571.

For MGESLFKGPRDYNPISSSICHLTNESDGHTTSLYGIGFGPFIITNKHLFRRNNGTLVVQSLHGVFKVKDTTTLQQHLVDGRDMIIIRMPKDFPPFPQKLKFREPQREERICLVTTNFQTKSMSSMVSDTSCTFPSGDGIFWKHWIQTKDGQCGSPLVSTRDGFIVGIHSASNFTNTNNYFTSVPKNFMELLTNQEARQWVSGWRLNADSVLWGGHKVFMVKPEEPFQPVKEATQL [Q197R], the “area with substrate ENLYFAS” value amounted to 0.0688, the “area with substrate ENLYFCS” value was found to be 0.0559, the “area with substrate ENLYFES” value was determined as 0.0727 and the “area with substrate ENLYFGS” value amounted to 0.0701. Further, the “area with substrate ENLYFIS” value was 0.067, the “area with substrate ENLYFKS” value was 0.0571, the “area with substrate ENLYFTS” value came to 0.0561 and the “area with substrate ENLYFVS” value was 0.0439.

As for MGESLFKGPRDYNPISSSICHLTNESDGHTTSLYGIGFGPFIITNKHLFRRNNGTLVVQSLHGVFKVKDTTTLQQHLVDGRDMIIIRMPKDGPPFPQKLKFREPQREERICLVTTNFQTKSMSSMVSDTSCTFPSGDGIFWKHWIQTKDGQCGSPLVSTRDGFIVGIHSASNFTNTNNYFTSVPKNFMELLTNQEAQQWVSGWRLNADSVLWGGHKVFMVKPEEPFQPVKEATQL [F92G], the “area with substrate ENLYFAS” value came to 0.0775, the “area with substrate ENLYFCS” value came to 0.0528, the “area with substrate ENLYFDS” value was 0.0556 and the “area with substrate ENLYFPS” value stood at 0.0592. In addition, the “area with substrate ENLYFTS” value was found to be 0.0526 and the “area with substrate ENLYFYS” value came out at 0.0513.

With MGESLFKGPRDYNPISSSICHLTNESDGHTTSLYGIGFGPFIITNKHLFRRNNGTLVVQSLHGVFKVKDTTTLQQHLVDGRDMIIIRMPKDFPPFPQKLKFREPQREERICLVTTNFQTKSMSSMVSDTSCTFPSGDGIFWKHWIQTKDGQCGSPLVSTRDGFIVGIHSAYNFTNTNNYFTSVPKNFMELLTNQEAQQWVSGWRLNADSVLWGGHKVFMVKPEEPFQPVKEATQL [S171Y], the “area with substrate ENLYFAS” value worked out at 0.0464, the “area with substrate ENLYFCS” value stood at 0.045, the “area with substrate ENLYFDS” value was determined as 0.0674 and the “area with substrate ENLYFES” value came out at 0.0563. Also, the “area with substrate ENLYFFS” value was 0.078, the “area with substrate ENLYFGS” value stood at 0.069, the “area with substrate ENLYFIS” value came to 0.0571 and the “area with substrate ENLYFLS” value was determined as 0.0673. The “area with substrate ENLYFMS” value turned out to be 0.061, the “area with substrate ENLYFNS” value turned out to be 0.0453, the “area with substrate ENLYFPS” value was found to be 0.0607 and the “area with substrate ENLYFRS” value was 0.0579. The “area with substrate ENLYFTS” value amounted to 0.0592.

For the origin of these results see the supplement of paper PMC12217912.
